In ChEMBL document CHEMBL4888484, “Replenishing the malaria drug discovery pipeline: Screening and hit evaluation of the MMV Hit Generation Library 1 (HGL1) against asexual blood stage Plasmodium falciparum ,using a nano luciferase reporter read-out” (2022):
Among all 150,000 compounds or so, about 540 (0.36%) showed an effect of 50% or more. The list shows a part of the results.

Test system: Plasmodium falciparum
Test: Primary screen in NF54 nanoGlo assay, in single point, at 2uM, 72h; a lower Z score goes with more inhibition
Type: functional, Erythrocyte
Conditions: timepoint 72 hour

Row | SMILES | % Inhibition | Z score
1 | Cc1ccc(NC(=O)Cn2c(=O)n(-c3ccc(F)cc3)c(=O)c3c2cc(C)n3C)cc1F | -18% | 1.7
2 | O=C(NCCO)NC1CCC(F)(F)CC1 | 9% | -1.11
3 | Cc1ccc(F)c(C(=O)N2CCN3C(=O)NC(=O)[C@@H]3C2)c1 | -16% | 2.11
4 | COc1cccc(NC(=O)C2Cc3cc(C(F)(F)F)ccc3N3CCN(c4ccccc4F)CC23)c1 (centres undefined) | -10% | 1.15
5 | COc1cnc(NC(=O)NC[C@H]2[C@H](c3ccccc3)C2(F)F)s1 | 2% | -0.38
6 | CCN1CCN(c2nc3ncn(CC(=O)Nc4ccc(Br)c(C)c4)c(=O)c3s2)CC1 | -9% | 1.5
7 | Cc1cc(C(=O)N2C[C@@H]3CC[C@H]2CN(CCCc2ccccc2)C3)nc(C)n1 | -12% | 1.15
8 | c1cncc(-c2nc(-c3ccncc3)no2)c1 | -14% | 1.82
9 | O=C(Nc1ccc(OCCc2ccccn2)cc1)N1C[C@H]2CC=CC[C@H]2C1 | -10% | 1.71
10 | CCOCc1nnc(NCc2c(C)nn(C)c2C)o1 | -15% | 1.29
11 | Cc1nnc2ccc(-c3noc(-c4cccc5[nH]ccc45)n3)cn12 | -12% | 2.06
12 | CC(C)(C)n1cc(CN2CCC[C@@H](CO)[C@H]2C(F)(F)F)nn1 | -1% | 0.08
13 | CC1CCC2(CC1)OC[C@@H](C(=O)N1CCCC1)N2C(=O)c1ccc(C(F)(F)F)cc1 (some centres undefined) | -6% | 0.69
14 | Cc1cc(N2C[C@H]3CC[C@@H](C2)[C@H]3N(C)C)nc(Nc2cccc(O)c2)n1 | 77% | -8.01
15 | CCn1ccc2c(cc(C(=O)Nc3cc(Cl)ccc3OC)n2C)c1=O | -3% | 0.46
16 | Cc1nn(CC(=O)N2CCCC2)c(=O)c2nc(-c3ccccc3)sc12 | -9% | 1.26
17 | O=C(Nc1c(C(=O)O)sc2ccccc12)c1ccccn1 | -10% | 1.61
18 | O=C(Nc1ccc2c(c1)OCO2)Nc1ccc2c(c1)OCO2 | -1% | 0.13
19 | O=C(COc1ccccc1Cl)N(Cc1ccco1)c1cccc(Cl)c1 | -7% | 0.89
20 | CCCC(O)(CCC)CNC(=O)Nc1cc(C)on1 | -5% | 0.54
21 | CC(C)Nc1ccc(C(=O)N2CCC[C@@H]2CO)cn1 | -10% | 1.74

Row | SMILES | % Inhibition | Z score
22 | c1cc(-c2nc3c(c(N4CCC[C@H](N5CCCC5)C4)n2)CCC3)ccn1 | -7% | 0.85
23 | COCCCn1cnc2c(-c3ccccc3)cn(CC(=O)Nc3cc(Cl)ccc3OC)c2c1=O | -5% | 0.73
24 | Cc1cc(C)c(C(=O)NCC2=CCCN([C@@H]3C=CCCC3)C2)c(C)c1 | -20% | 2.65
25 | COc1cc(C(=O)NC(C)(C)c2c(C)noc2C)on1 | 34% | -0.66
26 | COc1cc2c(cc1OC)[C@H](CNC(=O)c1ccc(Cl)cc1)N(Cc1cccc(C)c1)CC2 | 16% | -2.25
27 | Cc1c(-c2cccc(C(=O)NCC3(C)COC3)c2)cnn1C(F)F | -2% | 0.31
28 | CCOc1ccc(CNC(=O)CN(C)c2nc3c(s2)c(C)nn3-c2ccccc2)cc1OCC | 7% | -0.9
29 | Cc1cccc(CN[C@H]2CC(C)(C)Cc3c2cnn3-c2ccccc2C)n1 | -7% | 1.01
30 | Cc1ccc(NC(=O)Cn2cc(S(=O)(=O)N3CCOCC3)ccc2=O)cc1C | -7% | 1.47
31 | COCCc1nc([C@@H](C)Cn2cccn2)n(C2CCN(C)CC2)n1 | 8% | -1.06
32 | C[C@@H](CN)Oc1ccc(Br)cc1 | 4% | -0.59
33 | COc1ccc(C(=O)NC2CCC(Nc3nc(C)nc4c3cnn4-c3ccc(OC)cc3)CC2)cc1 (centres undefined) | -43% | 4.6
34 | O=C(c1nc2ccccc2s1)N1CC(Oc2cccc(C(F)(F)F)n2)C1 | -20% | 3.81
35 | C[C@H](NC(=O)Nc1ccccc1)C(=O)N1CCCCC1 | 4% | -0.49
36 | Cc1nc(C(=O)Nc2ccncc2)c(-c2ccccc2)s1 | -4% | 0.57
37 | O=C(CN1CCC[C@H]1c1nc2ccccc2s1)N1CCCCC1 | -12% | 2.17
38 | CNS(=O)(=O)CCNc1ncc2ccccc2n1 | -4% | 0.7
39 | CC(CCC1CCCO1)NC(=O)c1c[nH]c(=O)c(Br)c1 (centres undefined) | -2% | 0.18
40 | O=C1CNC(=O)N1[C@H]1CCO[C@@H]1c1ccccc1 | 3% | -0.63
41 | CCOc1ccc(-c2nc(CN[C@H]3CCOC34CCCC4)co2)cc1 | -14% | 1.78
42 | O=C(CCCc1cn[nH]c1)NC(c1ccccc1)[C@H]1C[C@@H](O)C1 (some centres undefined) | -11% | 1.67
